Screen size: about 310,000 compounds; about 2,200 (0.71%) showed an effect of 50% or more. Effects have a minus sign here. This is one part of the list.
Biological target: human ether-à-go-go-related gene (hERG) potassium channel (human, UniProt Q12809)
Assay: primary screen, population patch clamp on CHO cells stably expressing hERG

human ether-à-go-go-related gene (hERG) potassium channel, sequence (Q12809 whole entry, looked up): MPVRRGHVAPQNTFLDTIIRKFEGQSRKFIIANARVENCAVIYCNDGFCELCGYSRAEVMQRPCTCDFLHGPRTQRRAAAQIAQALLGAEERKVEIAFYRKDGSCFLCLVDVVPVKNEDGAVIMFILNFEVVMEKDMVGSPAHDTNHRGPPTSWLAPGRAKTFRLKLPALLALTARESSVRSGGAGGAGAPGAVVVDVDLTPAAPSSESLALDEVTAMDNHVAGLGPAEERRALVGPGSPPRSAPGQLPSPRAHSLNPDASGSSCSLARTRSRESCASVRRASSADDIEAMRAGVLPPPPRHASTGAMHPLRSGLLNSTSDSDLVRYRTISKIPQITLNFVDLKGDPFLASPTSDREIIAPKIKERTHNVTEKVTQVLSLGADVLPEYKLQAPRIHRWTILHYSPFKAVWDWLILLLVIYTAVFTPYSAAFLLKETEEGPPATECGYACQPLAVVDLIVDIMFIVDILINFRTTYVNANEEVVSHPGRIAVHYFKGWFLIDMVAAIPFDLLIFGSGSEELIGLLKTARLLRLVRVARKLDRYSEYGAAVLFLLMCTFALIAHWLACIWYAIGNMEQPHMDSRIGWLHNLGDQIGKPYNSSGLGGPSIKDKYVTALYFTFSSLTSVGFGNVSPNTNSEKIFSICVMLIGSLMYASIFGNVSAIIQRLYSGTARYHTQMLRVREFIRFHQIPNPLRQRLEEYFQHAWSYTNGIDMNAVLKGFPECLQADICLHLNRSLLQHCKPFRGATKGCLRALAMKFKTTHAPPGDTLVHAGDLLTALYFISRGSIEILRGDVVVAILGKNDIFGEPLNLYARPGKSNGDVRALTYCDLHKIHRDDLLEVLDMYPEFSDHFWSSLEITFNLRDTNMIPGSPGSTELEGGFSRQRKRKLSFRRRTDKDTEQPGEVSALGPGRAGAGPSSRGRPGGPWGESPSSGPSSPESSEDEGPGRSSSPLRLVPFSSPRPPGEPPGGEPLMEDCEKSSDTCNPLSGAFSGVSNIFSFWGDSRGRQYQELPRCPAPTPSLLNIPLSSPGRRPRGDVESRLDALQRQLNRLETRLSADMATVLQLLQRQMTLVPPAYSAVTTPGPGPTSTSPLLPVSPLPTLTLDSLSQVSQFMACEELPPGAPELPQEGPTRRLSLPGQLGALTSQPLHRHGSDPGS

SMILES | hERG current change (%, negative = inhibition) at 1uM [%]
CC(=O)c1c(O)cc(=O)n(-c2ccccc2)c1-c1cccc2ccccc12 | 20
COc1ccccc1C1CC(=O)NC(SCC(=O)Nc2ccccc2)=C1C#N (stereo not shown) | 5.2
CC(C)C(=O)N1CCN(c2ccc(NC(=O)c3ccc4c(c3)OCCO4)cc2Cl)CC1 | 5.91
COc1ccc(F)cc1CN1CCN(c2ncnc3scc(-c4ccccc4)c23)CC1 | 7.62
O=C(NCCCCNC(=O)c1cccnc1Cl)c1cccnc1Cl | 15.3
CCN1C(=O)NC2=C(C(=O)c3ccccc32)C1c1ccccc1F (stereo not shown) | 10.2
COC(=O)c1cccnc1-n1c(=O)c2cccnc2n(Cc2cccc(OC)c2)c1=O | 6.82
Cc1ccnc(NS(=O)(=O)c2ccc(NC(=O)Cc3cccs3)cc2)n1 | 12.9
O=C(CCCN1C(=O)c2cccnc2C1=O)Nc1ccccc1F | 12.3
CCCN(CC(=O)Nc1ccccc1OC)C(=O)c1ccc(S(=O)(=O)Nc2ccccc2)cc1 | -18.8
CCOC(=O)c1c(NC(=O)CSc2nc3ccccc3s2)sc(C(C)=O)c1C | 16.4
Cc1ccc(S(=O)(=O)N2CCCc3cc(NC(=O)c4c(F)cccc4F)ccc32)cc1 | 8.99
CCOC(=O)c1c(C)[nH]c(C(=O)OCc2ccccc2)c1C | 14.7
CCOC(=O)c1cnc(SCC(=O)Nc2ccc(N3CCOCC3)cc2)nc1N | 0.908
COc1ccc(N(CC(=O)Nc2cccnc2)S(=O)(=O)c2ccc(C)cc2)cc1Cl | 9.86
O=C(COc1ccccc1C(=O)NCc1ccncc1)Nc1ccc(Br)cc1 | 6.07
CC1CCN(C(=O)CCCC(=O)O)CC1 | 19.2
COc1ccc(C2=NN(C(=O)CSc3ncccn3)C(c3ccc(C)cc3)C2)cc1 (stereo not shown) | 10.2
CC1CN(c2nc3ccccc3nc2SCC(=O)Nc2cccc(C(F)(F)F)c2)CC(C)O1 (stereo not shown) | 12.9
CCCN1C(=O)c2ccccc2NC1c1ccc(OC)cc1OC (stereo not shown) | 12.1
O=C(NCc1ccco1)c1cc2n(n1)C(C(F)(F)F)CC(c1ccc(F)cc1)N2 (stereo not shown) | -4.18
O=C(Nc1n[nH]c(C(F)(F)F)n1)c1cccs1 | 10.2

SMILES | hERG current change (%, negative = inhibition) at 1uM [%]
CS(=O)(=O)c1ccc(S(=O)(=O)N2CCC(CO)(CCCc3ccccc3)CC2)cc1 | 4.47
C[C@H]1CC[C@]2(O[C@H](CCO)C[C@H](O)[C@H]2O)O1 | 15
COc1ccc(C(CNC(=O)CNC(=O)c2cccc(Cl)c2)N2CCCC2)cc1 (stereo not shown) | 2.3
O=c1cc(-c2ccc(Cl)c(Cl)c2)[nH][nH]1 | 16.9
O=C(N/N=C\c1ccco1)c1cncc(Br)c1 | 12.5
Cc1ccc(C)c(NC(=S)N2CCC(N(C)CC3CCCO3)CC2)c1 (stereo not shown) | -0.457
c1cncc(N=c2scc(-c3cccc4ccccc34)n2CCCn2ccnc2)c1 | -10.8
CC(=O)Nc1cccc(NC(=O)Nc2ccc(C)c(Cl)c2)c1 | 28.7
Cc1ccccc1C(=O)N1CCC(C(=O)Nc2nccs2)CC1 | 25
COc1ccc(NC(=O)Nc2cccc(C(=O)N3CCOCC3)c2)cc1OC | 3.54
CN(C)S(=O)(=O)c1cccc(NC(=O)COC(=O)c2cccn2C)c1 | -0.612
CC/C(=N\NC(=O)c1c(C)nc2ccccn12)c1ccccc1 | 21.8
CCCCc1nn2c(N)c(/C=C3\C=Nc4ccccc43)c(=O)nc2s1 | 2.67
O=C(Cc1ccc(-n2c(=S)[nH]c3ccccc3c2=O)cc1)N1CCC(N2CCCCC2)CC1 | -9.55
COc1ccc(CNC(=O)C(=O)NCC2CCCN2S(=O)(=O)c2cccs2)cc1 (stereo not shown) | 5.93
Fc1cccc(Cl)c1CSc1nnc(-c2ccncc2)o1 | 5.59
Oc1csc(Cc2nc(-c3ccc4ccccc4c3)cs2)n1 | 4.67
COc1ccccc1NC(=O)C(NC(=O)OC(C)(C)C)C(C)OCc1ccccc1 (stereo not shown) | 7.77
CCC(C)Nc1nc(N)c([N+](=O)[O-])c(Nc2cc(OC)ccc2OC)n1 (stereo not shown) | 15.7
O=C(COC(=O)Cc1ccccc1F)Nc1ccc(F)cc1F | 0.207
O=C(O)c1nn(-c2ccccc2)c(-c2ccccc2)c1C(=O)c1ccccc1 | 4.76
Cc1cc(C(F)(F)F)nc2c(Cl)c(C(C)(C)C)nn12 | 14

SMILES | hERG current change (%, negative = inhibition) at 1uM [%]
Cc1ccc2cc(COC(=O)c3ccncc3)c(=O)[nH]c2c1 | -5.66
CCOc1ccc(C(c2c(NC(=O)c3ccccc3)sc(C)c2C)N2CCN(CCO)CC2)cc1 (stereo not shown) | 4.97
Cc1cc(C)nc(NN2C(=O)/C(=C/c3ccc(O)cc3)SC2=S)n1 | -5.35
CC(=O)Nc1ccc(/C(C)=N/NC(=O)C2CC2c2ccccc2)cc1 (stereo not shown) | 4.99
CCOc1ccc2cc(C3CC(c4ccco4)=NN3S(C)(=O)=O)c(Cl)nc2c1 (stereo not shown) | 16.5
COc1ccc(CCNC(=O)CNC(=O)c2ccccc2Br)cc1OC | 7.7
CC1CCN(S(=O)(=O)c2ccc(S(=O)(=O)NCC3COCCO3)cc2)CC1 (stereo not shown) | 11.3
CCOC(=O)c1c(C)n(S(=O)(=O)c2ccc(C)cc2)c2ccc(O)c(C(=O)O)c12 | -3.82
COc1ccc(-c2cn[nH]c2N)cc1OC | 10.1
COc1ccc(NC(=O)c2cncc(Br)c2)c(S(=O)(=O)N2CCOCC2)c1 | 3.33
O=C(CCC1CCCN(C(=O)c2ccsc2)C1)N1CCN(c2ccccn2)CC1 (stereo not shown) | 2.84
COC(=O)c1c(NC(=O)c2ccoc2C)sc(C)c1C | 12
COc1cccc(NC2=C(NCCO)C(=O)c3ccccc3C2=O)c1 | 9.03
Cc1c(Cl)cnc(NC(=O)COC(=O)c2cccc(S(=O)(=O)N3CCc4ccccc4C3)c2)c1Cl | 13.5
CCN1CCN(c2ccc(S(=O)(=O)N3CCOCC3)cc2NC(=O)/C=C/c2ccc(C)cc2)CC1 | -4.67
CCOC(=O)/C(=C\c1cccc(O)c1)c1nc2sc(C)c(C)c2c(=O)[nH]1 | 15.4
Cc1ccc(Oc2nc3c(c(=O)n(Cc4ccccc4F)c(=O)n3C)n2C)cc1 | 2.05
Cc1[nH]c(C)c2c(=O)n(-c3ccccc3)ncc12 | 11.1
Cc1ccc(NC(=S)NC(NC(=O)N(C)C)C(Cl)(Cl)Cl)cc1 (stereo not shown) | 11.2
CC(=O)C1=C(O)C(=O)N(CCCO)C1c1ccccc1 (stereo not shown) | 8.96
O=C(NCc1cccs1)C(Cc1ccccc1)n1cccc1 (stereo not shown) | 1.19
CC(NC(=O)Cc1ccsc1)c1ccc(Cl)cc1Cl (stereo not shown) | 21.9

SMILES | hERG current change (%, negative = inhibition) at 1uM [%]
COc1ccccc1C(=O)NNC(=O)c1cccc([N+](=O)[O-])c1 | -4.17
NC(=O)CCn1cnc2ccccc21 | 10.9
COc1cccc(NC(=O)c2nnn(CCc3ccccc3)c2N)c1 | -1.39
O=S(=O)(Nc1ccc(Cl)cn1)c1ccc2c(c1)OCCO2 | -4.51
COc1ccc(CN(C)C(=O)COC(=O)c2c(C)nn(-c3ccc(F)cc3)c2Cl)cc1 | -11.9
O=C(N/N=C/c1ccc([N+](=O)[O-])cc1)c1cc(-c2ccc3c(c2)OCO3)n[nH]1 | 10.8
COc1ccccc1-c1noc(-c2ccccc2)n1 | 17.2
COc1ccc(CC(=O)Nc2nnc(SCC(=O)NCc3ccco3)s2)cc1OC | 13.4
FC(F)(F)c1nc(-c2ccccc2)ncc1-c1nnnn1-c1ccccc1 | 10.9
COc1ccc(Nc2cc(C)nc3nc(C)nn23)cc1Cl | -31.6
O=C(COc1ccc([N+](=O)[O-])cc1)Nc1cccc(C(=O)Nc2ccccc2C(=O)O)c1 | 10.5
CC(=O)N1CCSc2ccc(S(=O)(=O)NCCc3ccc(C)cc3)cc21 | 12.2
COc1ccccc1OCCNC(=O)C1CC(=O)N(Cc2ccc(C)cc2)C1 (stereo not shown) | 8.09
C=CCO/N=C(\C)c1c(O)c(C)c(-c2ccccc2)n(-c2ccccc2)c1=O | 4.58
O=C(Cc1ccccc1)Oc1ccc(N2C(=O)CCC2=O)cc1 | 10.5
CC1=NN(C(N)=S)C(=O)C1N=Nc1ccc(Cl)cc1Cl (stereo not shown) | 11.9
COC(=O)CC(N)c1ccc(Br)cc1.Cl (stereo not shown) | 10.7
CN(C)c1nc(N(C)C)nc(N(C)C)n1 | 16.6
Fc1cc2nccnc2cc1N1CCSCC1 | 7.78
O=C1OCC(CO)(CO)N=C1NNc1ccccc1[N+](=O)[O-] | 7.8
COc1ccc(C(=O)COC(=O)c2ccc(Cl)nc2)c(OC)c1 | 7.9
O=C(CCCSc1nc2ccccc2s1)NCc1ccco1 | 9.87

— publication PMC4336329 (PLoS ONE, 2015)
